For at least one compound, name, drawing or mass did not settle the structure. Numbered stars: 1 amine (or outer) side, 2 acyl side, 3 side chain; on linkers, the order of the positions; unused ones are H or OH. Side chains are listed from the residue outwards. Peptide text beside a SMILES is read from it. * marks the point of attachment. Decanoyl(10-(4-HOOC-PhO)) = O=C(O)c1ccc(OCCCCCCCCCC(=O)*)cc1; γGlu = O=C(O)[C@H](CCC(=O)[*:2])N[*:1]; AEEA = NCCOCCOCC(=O)O
Target: T1, human GLP-1 receptor (Homo sapiens, UniProt P43220)
T1 construct: expressed in transfected cells; membranes
Assay: GLP-1 receptor binding: displacement of 125I-GLP-1 (SPA) at low and high albumin
Settings: 2.0% HSA vs 0.001% HSA
Protocol: The purpose of this experiment is to investigate the binding to the GLP-1 receptor of the GLP-1 derivatives, and how the binding is potentially influenced by the presence of albumin. This is done in an in vitro experiment as described below.
In order to test the binding of the derivatives to albumin, the assay was performed with a low concentration of albumin (0.001%—corresponding to the residual amount thereof in the tracer), as well as with a high concentration of albumin (2.0% added). A shift in the binding affinity, IC50, is an indication that the peptide in question binds to albumin, and thereby a prediction of a potential protracted pharmacokinetic profile of the peptide in question in animal models.
Species (in vitro): Hamster
Biological End Point: Receptor Binding
A stable transfected cell line and a high expressing clone were selected for screening. The cells were grown at 5% CO2 in DMEM, 10% FCS, 1% Pen/Strep (Penicillin/Streptomycin) and 1.0 mg/ml of the selection marker G418.
The cells (approx. 80% confluence) were washed twice in PBS and harvested with Versene (aqueous solution of the tetrasodium salt of ethylenediaminetetraacetic acid), following which they were separated by centrifugation at 1000 rpm for 5 min. The cells/cell pellet must be kept on ice to the extent possible in the subsequent steps. The cell pellet was homogenised with Ultrathurrax for 20-30 seconds in a suitable amount of Buffer 1 (depending on the amount of cells, but e.g. 10 ml). The homogenate was centrifuged at 20000 rpm for 15 minutes. The pellet was resuspended (homogenised) in 10 ml Buffer 2 and re-centrifuged. This step was repeated once more. The resulting pellet was resuspended in Buffer 2, and the protein concentration was determined. The membranes were stored at minus 80° C.
Buffer 1: 20 mM Na-HEPES+10 mM EDTA, pH 7.4
Buffer 2: 20 mM Na-HEPES+0.1 mM EDTA, pH 7.4
Test compounds, membranes, SPA-particles and [^125I]-GLP-1(7-36)NH2 were diluted in assay buffer. 50 ul (micro liter) HSA (“high albumin” experiment containing 2% HSA), or buffer (“low albumin” experiment containing 0.001% HSA), was added to Optiplate, and 25 ul of test compounds were added. 5-10 ug membrane protein/sample was added (50 ul) corresponding to 0.1-0.2 mg protein/ml (to be preferably optimised for each membrane preparation). SPA-particles (Wheatgerm agglutinin SPA beads, Perkin Elmer, #RPNQ0001) were added in an amount of 0.5 mg/well (50 ul). The incubation was started with [^125I]-GLP-1]-(7-36)NH2 (final concentration 0.06 nM corresponding to 49.880 DPM, 25 ul). The plates were sealed with PlateSealer and incubated for 120 minutes at 30° C. while shaking. The plates were centrifuged (1500 rpm, 10 min) and counted in Topcounter.

T1 sequence (P43220 24-463): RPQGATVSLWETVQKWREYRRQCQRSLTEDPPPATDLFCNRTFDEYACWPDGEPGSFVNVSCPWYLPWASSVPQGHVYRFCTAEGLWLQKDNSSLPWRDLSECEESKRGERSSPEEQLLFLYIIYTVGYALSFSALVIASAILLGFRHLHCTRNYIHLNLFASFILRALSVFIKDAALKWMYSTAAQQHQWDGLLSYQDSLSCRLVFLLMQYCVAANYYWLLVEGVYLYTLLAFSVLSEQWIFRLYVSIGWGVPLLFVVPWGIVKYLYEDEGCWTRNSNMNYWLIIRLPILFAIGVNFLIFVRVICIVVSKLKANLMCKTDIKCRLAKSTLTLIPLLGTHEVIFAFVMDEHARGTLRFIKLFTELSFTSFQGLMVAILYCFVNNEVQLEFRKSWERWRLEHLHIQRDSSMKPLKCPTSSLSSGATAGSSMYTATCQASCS

## CC[C@H](C)[C@H](NC(=O)[C@H](Cc1ccccc1)NC(=O)[C@H](CCCCNC(=O)COCCOCCNC(=O)COCCOCCNC(=O)CC[C@H](NC(=O)CCCCCCCCCOc1ccc(C(=O)O)cc1)C(=O)O)NC(=O)[C@H](CCCNC(=N)N)NC(=O)[C@H](C)NC(=O)[C@H](C)NC(=O)[C@H](CCC(N)=O)NC(=O)[C@H](CCC(=O)O)NC(=O)[C@H](CCC(=O)O)NC(=O)[C@H](CC(C)C)NC(=O)[C@H](Cc1ccc(O)cc1)NC(=O)[C@H](CO)NC(=O)[C@H](CO)NC(=O)[C@@H](NC(=O)[C@H](CC(=O)O)NC(=O)[C@H](CO)NC(=O)[C@@H](NC(=O)[C@H](Cc1ccccc1)NC(=O)[C@@H](NC(=O)CNC(=O)[C@H](CCC(=O)O)NC(=O)[C@H](C)NC(=O)[C@@H](N)Cc1c[nH]cn1)[C@@H](C)O)[C@@H](C)O)C(C)C)C(=O)N[C@@H](C)C(=O)N[C@@H](Cc1c[nH]c2ccccc12)C(=O)N[C@@H](CC(C)C)C(=O)N[C@H](C(=O)N[C@@H](CCCNC(=N)N)C(=O)NCC(=O)N[C@@H](CCCNC(=N)N)C(=O)N[C@@H](CCCCNC(=O)COCCOCCNC(=O)COCCOCCNC(=O)CC[C@H](NC(=O)CCCCCCCCCOc1ccc(C(=O)O)cc1)C(=O)O)C(=O)O)C(C)C [Example 1, N^ε27-[2-[2-[2-[[2-[2-[2-[[(4S)-4-carboxy-4-[10-(4-carboxyphenoxy)decanoylamino]butanoyl]amino]ethoxy]ethoxy]acetyl]amino]ethoxy]ethoxy]acetyl], N^ε37-[2-[2-[2-[[2-[2-[2-[[(4S)-4-carboxy-4-[10-(4-carboxyphenoxy)decanoylamino]butanoyl]amino]ethoxy]ethoxy]acetyl]amino]ethoxy]ethoxy]acetyl]-[Glu^22,Arg^26,Lys^27,Arg^34,Lys^37]-GLP-1-(7-37)-peptide] (H-HAEGTFTSDVSSYLEEQAARK([AEEA-AEEA-γGlu-Decanoyl(10-(4-HOOC-PhO))])FIAWLVRGRK([AEEA-AEEA-γGlu-Decanoyl(10-(4-HOOC-PhO))])-OH; N-terminus and C-terminus assumed)
  Ratio [(IC50/nM) high HSA]/[(IC50/nM) low HSA]: 219

## CC[C@H](C)[C@H](NC(=O)[C@H](Cc1ccccc1)NC(=O)[C@H](CCCCNC(=O)COCCOCCNC(=O)COCCOCCNC(=O)CC[C@H](NC(=O)CCCCCCCCCOc1ccc(C(=O)O)cc1)C(=O)O)NC(=O)[C@H](CCCNC(=N)N)NC(=O)[C@H](C)NC(=O)[C@H](C)NC(=O)[C@H](CCC(N)=O)NC(=O)[C@H](CCC(=O)O)NC(=O)[C@H](CCC(=O)O)NC(=O)[C@H](CC(C)C)NC(=O)[C@H](Cc1ccc(O)cc1)NC(=O)[C@H](CO)NC(=O)[C@H](CO)NC(=O)[C@@H](NC(=O)[C@H](CC(=O)O)NC(=O)[C@H](CO)NC(=O)[C@@H](NC(=O)[C@H](Cc1ccccc1)NC(=O)[C@@H](NC(=O)CNC(=O)[C@H](CCC(=O)O)NC(=O)[C@H](C)NC(=O)[C@@H](N)Cc1c[nH]cn1)[C@@H](C)O)[C@@H](C)O)C(C)C)C(=O)N[C@@H](C)C(=O)N[C@@H](Cc1c[nH]c2ccccc12)C(=O)N[C@@H](CC(C)C)C(=O)N[C@H](C(=O)N[C@@H](CCCNC(=N)N)C(=O)NCC(=O)N[C@@H](CCCCNC(=O)COCCOCCNC(=O)COCCOCCNC(=O)CC[C@H](NC(=O)CCCCCCCCCOc1ccc(C(=O)O)cc1)C(=O)O)C(=O)O)C(C)C [Example 3, N^ε27-[2-[2-[2-[[2-[2-[2-[[(4S)-4-carboxy-4-[10-(4-carboxyphenoxy)decanoylamino]butanoyl]amino]ethoxy]ethoxy]acetyl]amino]ethoxy]ethoxy]acetyl], N^ε36-[2-[2-[2-[[2-[2-[2-[[(4S)-4-carboxy-4-[10-(4-carboxyphenoxy)decanoylamino]butanoyl]amino]ethoxy]ethoxy]acetyl]amino]ethoxy]ethoxy]acetyl]-[Glu^22,Arg^26,Lys^27,Arg^34,Lys^36],des-Gly37-GLP-1-(7-36)-peptide] (H-HAEGTFTSDVSSYLEEQAARK([AEEA-AEEA-γGlu-Decanoyl(10-(4-HOOC-PhO))])FIAWLVRGK([AEEA-AEEA-γGlu-Decanoyl(10-(4-HOOC-PhO))])-OH; N-terminus and C-terminus assumed)
  Ratio [(IC50/nM) high HSA]/[(IC50/nM) low HSA]: 101

## CC[C@H](C)[C@H](NC(=O)[C@H](Cc1ccccc1)NC(=O)[C@H](CCCCNC(=O)COCCOCCNC(=O)COCCOCCNC(=O)CC[C@H](NC(=O)CCCCCCCCCOc1ccc(C(=O)O)cc1)C(=O)O)NC(=O)[C@H](CCCNC(=N)N)NC(=O)[C@@H](NC(=O)[C@H](C)NC(=O)[C@H](CCC(N)=O)NC(=O)[C@H](CCC(=O)O)NC(=O)[C@H](CCC(=O)O)NC(=O)[C@H](CC(C)C)NC(=O)[C@H](Cc1ccc(O)cc1)NC(=O)[C@H](CO)NC(=O)[C@H](CO)NC(=O)[C@@H](NC(=O)[C@H](CC(=O)O)NC(=O)[C@H](CO)NC(=O)[C@@H](NC(=O)[C@H](Cc1ccccc1)NC(=O)[C@@H](NC(=O)CNC(=O)[C@H](CCC(=O)O)NC(=O)[C@H](C)NC(=O)[C@@H](N)Cc1c[nH]cn1)[C@@H](C)O)[C@@H](C)O)C(C)C)C(C)C)C(=O)N[C@@H](C)C(=O)N[C@@H](Cc1c[nH]c2ccccc12)C(=O)N[C@@H](CC(C)C)C(=O)N[C@H](C(=O)N[C@@H](CCCNC(=N)N)C(=O)NCC(=O)N[C@@H](CCCNC(=N)N)C(=O)N[C@@H](CCCCNC(=O)COCCOCCNC(=O)COCCOCCNC(=O)CC[C@H](NC(=O)CCCCCCCCCOc1ccc(C(=O)O)cc1)C(=O)O)C(=O)O)C(C)C [Example 4, N^ε27-[2-[2-[2-[[2-[2-[2-[[(4S)-4-carboxy-4-[10-(4-carboxyphenoxy)decanoylamino]butanoyl]amino]ethoxy]ethoxy]acetyl]amino]ethoxy]ethoxy]acetyl], N^ε37-[2-[2-[2-[[2-[2-[2-[[(4S)-4-carboxy-4-[10-(4-carboxyphenoxy)decanoylamino]butanoyl]amino]ethoxy]ethoxy]acetyl]amino]ethoxy]ethoxy]acetyl]-[Glu^22,Val^25,Arg^26,Lys^27,Arg^34,Lys^37]-GLP-1-(7-37)-peptide] (H-HAEGTFTSDVSSYLEEQAVRK([AEEA-AEEA-γGlu-Decanoyl(10-(4-HOOC-PhO))])FIAWLVRGRK([AEEA-AEEA-γGlu-Decanoyl(10-(4-HOOC-PhO))])-OH; N-terminus and C-terminus assumed)
  Ratio [(IC50/nM) high HSA]/[(IC50/nM) low HSA]: 217

## CC[C@H](C)[C@H](NC(=O)[C@H](Cc1ccccc1)NC(=O)[C@H](CCCCNC(=O)COCCOCCNC(=O)COCCOCCNC(=O)CC[C@H](NC(=O)CCCCCCCCCOc1ccc(C(=O)O)cc1)C(=O)O)NC(=O)[C@H](CCCNC(=N)N)NC(=O)[C@H](C)NC(=O)[C@H](C)NC(=O)[C@H](CCC(N)=O)NC(=O)CNC(=O)[C@H](CCC(=O)O)NC(=O)[C@H](CC(C)C)NC(=O)[C@H](Cc1ccc(O)cc1)NC(=O)[C@H](CO)NC(=O)[C@H](CO)NC(=O)[C@@H](NC(=O)[C@H](CC(=O)O)NC(=O)[C@H](CO)NC(=O)[C@@H](NC(=O)[C@H](Cc1ccccc1)NC(=O)[C@@H](NC(=O)CNC(=O)[C@H](CCC(=O)O)NC(=O)[C@H](C)NC(=O)[C@@H](N)Cc1c[nH]cn1)[C@@H](C)O)[C@@H](C)O)C(C)C)C(=O)N[C@@H](CCC(=O)O)C(=O)N[C@@H](Cc1c[nH]c2ccccc12)C(=O)N[C@@H](CC(C)C)C(=O)N[C@H](C(=O)N[C@@H](CCCNC(=N)N)C(=O)NCC(=O)N[C@@H](CCCCNC(=O)COCCOCCNC(=O)COCCOCCNC(=O)CC[C@H](NC(=O)CCCCCCCCCOc1ccc(C(=O)O)cc1)C(=O)O)C(=O)NCC(=O)N[C@@H](CCC(=O)O)C(=O)O)C(C)C [Example 6, N^ε27-[2-[2-[2-[[2-[2-[2-[[(4S)-4-carboxy-4-[10-(4-carboxyphenoxy)decanoylamino]butanoyl]amino]ethoxy]ethoxy]acetyl]amino]ethoxy]ethoxy]acetyl], N^ε36-[2-[2-[2-[[2-[2-[2-[[(4S)-4-carboxy-4-[10-(4-carboxyphenoxy)decanoylamino]butanoyl]amino]ethoxy]ethoxy]acetyl]amino]ethoxy]ethoxy]acetyl]-[Arg^26,Lys^27,Glu^30,Arg^34,Lys^36]-GLP-1-(7-37)-peptidyl-Glu] (H-HAEGTFTSDVSSYLEGQAARK([AEEA-AEEA-γGlu-Decanoyl(10-(4-HOOC-PhO))])FIEWLVRGK([AEEA-AEEA-γGlu-Decanoyl(10-(4-HOOC-PhO))])GE-OH; N-terminus and C-terminus assumed)
  Ratio [(IC50/nM) high HSA]/[(IC50/nM) low HSA]: 246

From patent US11117947B2, “Double-acylated GLP-1 derivatives” (Novo Nordisk A/S, priority 2011, dated 2021)
